According to the supplement of paper PMC4967469:

How the values were obtained:
Assay in all cases: Viability of human cancer cell lines after 72 h of drug (GDSC screen)
[1] = compound: CN(C)C/C=C/C(=O)Nc1ccc(C(=O)Nc2cccc(Nc3nccc(-c4cccnc4)n3)c2)cc1 [ZG-10]; conditions: top dose 10 µM; top dose inferred
Protocol: (§1)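 Human cancer cell lines in 384-well plates, medium with 10% serum, drug for 72 h over a 256-fold dose range (nine 2-fold or five 4-fold steps up to the top dose). Adherent lines were fixed and stained with the nucleic acid dye Syto60, suspension lines read with resazurin; signal relative to control wells, capped at 0 and 100%. One two-parameter sigmoid per drug and line, fitted in a mixed model over all curves with the slope shared within a line.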

[2] = compound: CN1CCc2c(c3ccccc3n2Cc2ccc(C(=O)NO)cc2)C1 [Tubastatin A]; conditions: top dose 20 µM
Protocol: as §1

[3] = compound: Cn1nnc2c(C(N)=O)ncn2c1=O [Temozolomide]; conditions: top dose 30 µM
Protocol: as §1

[4] = compound: COc1cc2c(Oc3ccc(NC(=O)C4(C(=O)Nc5ccc(F)cc5)CC4)cc3F)ccnc2cc1OCCCN1CCOCC1 [XL-880]; conditions: top dose 5.12 µM; top dose inferred
Protocol: as §1

[5] = compound: O=C(NOCC1CC1)c1ccc(F)c(F)c1Nc1ccc(I)cc1Cl [CI-1040]; conditions: top dose 10 µM; top dose inferred
Protocol: as §1

[6] = compound: Oc1ccc2ccccc2c1SSc1c(O)ccc2ccccc12 [IPA-3]; conditions: top dose 32 µM; top dose inferred
Protocol: as §1

For D-566MG (glioma, adherent), the AUC [1] was 0.692, the IC50 [1] was 2.14 µM and the AUC [2] was 0.983. For the same cell line, the IC50 [2] was > 20 µM, the AUC [3] was 0.96 and the IC50 [3] was > 30 µM. It also gave an AUC [4] of 0.562, an IC50 [4] of 473 nM and an AUC [5] of 0.754. For the same cell line, the IC50 [5] was 3.32 µM.

For A549 (lung adenocarcinoma, adherent), the AUC [1] was 0.825, the IC50 [1] was 7.05 µM and the AUC [3] was 0.967. For the same cell line, the IC50 [3] was > 30 µM, the AUC [5] was 0.685 and the IC50 [5] was 2.21 µM.

Cell Line T-24 (bladder, adherent) has an AUC [1] of 0.861, an IC50 [1] of 7.88 µM and an AUC [2] of 0.974. For the same cell line, the IC50 [2] was > 20 µM, the AUC [3] was 0.987 and the IC50 [3] was > 30 µM. The AUC [6] was 0.987, the IC50 [6] was > 32 µM and the AUC [4] was 0.811. The IC50 [4] was 2570 nM.

Hs940-T (melanoma, adherent) showed an AUC [1] of 0.84, an IC50 [1] of 9.09 µM and an AUC [2] of 0.983. The IC50 [2] was > 20 µM, the AUC [3] was 0.981 and the IC50 [3] was > 30 µM. For the same cell line, the AUC [6] was 0.758, the IC50 [6] was 13.4 µM and the AUC [4] was 0.984. The IC50 [4] was > 5120 nM.

Work on GP5d (large intestine, adherent) yielded an AUC [1] of 0.778, an IC50 [1] of 3.62 µM and an AUC [2] of 0.991. The IC50 [2] was > 20 µM, the AUC [3] was 0.99 and the IC50 [3] was > 30 µM. The AUC [6] was 0.924, the IC50 [6] was > 32 µM and the AUC [4] was 0.711. For the same cell line, the IC50 [4] was 1170 nM.

With A673 (rhabdomyosarcoma, adherent) the AUC [1] was 0.591, the IC50 [1] was 1.08 µM and the AUC [2] was 0.984. For the same cell line, the IC50 [2] was > 20 µM, the AUC [3] was 0.989 and the IC50 [3] was > 30 µM. The AUC [6] was 0.99, the IC50 [6] was > 32 µM and the AUC [4] was 0.784. It also gave an IC50 [4] of 1940 nM.

Cell Line “NCI-H508 (large intestine, semi-adherent)” has an AUC [1] of 0.722, an IC50 [1] of 4.19 µM and an AUC [3] of 0.96. For the same cell line, the IC50 [3] was > 30 µM, the AUC [5] was 0.713 and the IC50 [5] was 3.85 µM.

Work on OCI-LY7 (B-cell lymphoma, suspension) yielded an AUC [1] of 0.627, an IC50 [1] of 1.26 µM and an AUC [5] of 0.901. It also gave an IC50 [5] of 6.36 µM.

In the case of HT-29 (large intestine, adherent), the AUC [1] is reported as 0.888, the IC50 [1] is reported as > 10 µM and the AUC [2] is reported as 0.976. The IC50 [2] was > 20 µM, the AUC [3] was 0.986 and the IC50 [3] was > 30 µM. The AUC [6] was 0.987 and the IC50 [6] was > 32 µM.

H2591 (mesothelioma, adherent) was tested, and the AUC [1] was 0.802, the IC50 [1] was 6.77 µM and the AUC [2] was 0.917. For the same cell line, the IC50 [2] was > 20 µM, the AUC [3] was 0.98 and the IC50 [3] was > 30 µM. The AUC [6] was 0.904, the IC50 [6] was > 32 µM and the AUC [4] was 0.7. For the same cell line, the IC50 [4] was 1400 nM.

In the case of NCI-N87 (stomach, adherent), the AUC [1] is reported as 0.718, the IC50 [1] is reported as 3.45 µM and the AUC [3] is reported as 0.976. The IC50 [3] was > 30 µM, the AUC [5] was 0.797 and the IC50 [5] was 7.32 µM.

With “HCC-366 (non-small cell lung carcinoma, adherent)” the AUC [1] was 0.87, the IC50 [1] was > 10 µM and the AUC [3] was 0.986. For the same cell line, the IC50 [3] was > 30 µM.

Cell Line SW48 (large intestine, adherent) has an AUC [1] of 0.761, an IC50 [1] of 3.54 µM and an AUC [2] of 0.974. The IC50 [2] was > 20 µM, the AUC [3] was 0.985 and the IC50 [3] was > 30 µM. It also gave an AUC [6] of 0.709, an IC50 [6] of 7.74 µM and an AUC [4] of 0.622. The IC50 [4] was 691 nM.

“NCI-H2066 (small cell lung carcinoma, adherent)” was tested, and the AUC [1] was 0.977, the IC50 [1] was > 10 µM and the AUC [3] was 0.975. For the same cell line, the IC50 [3] was > 30 µM.

For H2810 (mesothelioma, adherent), the AUC [1] was 0.901, the IC50 [1] was > 10 µM and the AUC [3] was 0.984. For the same cell line, the IC50 [3] was > 30 µM.

DIFI (large intestine, adherent) showed an AUC [1] of 0.79, an IC50 [1] of 4.67 µM and an AUC [3] of 0.986. For the same cell line, the IC50 [3] was > 30 µM, the AUC [5] was 0.798 and the IC50 [5] was 4.99 µM.

Cell Line NCI-H929 (myeloma, suspension) has an AUC [1] of 0.605, an IC50 [1] of 1.16 µM and an AUC [3] of 0.985. For the same cell line, the IC50 [3] was > 30 µM, the AUC [5] was 0.69 and the IC50 [5] was 1.94 µM.

For SK-CO-1 (large intestine, adherent), the AUC [1] was 0.743, the IC50 [1] was 2.96 µM and the AUC [2] was 0.968. For the same cell line, the IC50 [2] was > 20 µM, the AUC [3] was 0.914 and the IC50 [3] was > 30 µM. For the same cell line, the AUC [6] was 0.962, the IC50 [6] was > 32 µM and the AUC [4] was 0.68. For the same cell line, the IC50 [4] was 984 nM.

SU-DHL-10 (B-cell lymphoma, suspension) showed an AUC [1] of 0.772, an IC50 [1] of 2.85 µM and an AUC [2] of 0.924. The IC50 [2] was 14.7 µM, the AUC [3] was 0.998 and the IC50 [3] was > 30 µM. The AUC [4] was 0.49 and the IC50 [4] was 302 nM.

Cell Line A375 (melanoma, adherent) has an AUC [1] of 0.749, an IC50 [1] of 2.76 µM and an AUC [2] of 0.95. The IC50 [2] was > 20 µM, the AUC [6] was 0.855 and the IC50 [6] was 18.7 µM. For the same cell line, the AUC [4] was 0.57 and the IC50 [4] was 480 nM.

With “NCI-H1915 (large cell lung carcinoma, adherent)” the AUC [1] was 0.809, the IC50 [1] was 5.31 µM and the AUC [2] was 0.936. For the same cell line, the IC50 [2] was > 20 µM, the AUC [3] was 0.986 and the IC50 [3] was > 30 µM. The AUC [6] was 0.94, the IC50 [6] was > 32 µM and the AUC [4] was 0.815. The IC50 [4] was 2870 nM.

H2804 (mesothelioma, adherent) showed an AUC [1] of 0.765, an IC50 [1] of 4 µM and an AUC [2] of 0.97. For the same cell line, the IC50 [2] was > 20 µM, the AUC [3] was 0.984 and the IC50 [3] was > 30 µM. The AUC [6] was 0.907, the IC50 [6] was > 32 µM and the AUC [4] was 0.796. The IC50 [4] was 2680 nM.

Cell Line “NCI-H196 (small cell lung carcinoma, adherent)” has an AUC [1] of 0.844, an IC50 [1] of 7.65 µM and an AUC [2] of 0.975. The IC50 [2] was > 20 µM, the AUC [3] was 0.987 and the IC50 [3] was > 30 µM. The AUC [6] was 0.988, the IC50 [6] was > 32 µM and the AUC [4] was 0.766. For the same cell line, the IC50 [4] was 1970 nM.

In the case of PWR-1E (prostate, adherent), the AUC [1] is reported as 0.758, the IC50 [1] is reported as 3.46 µM and the AUC [3] is reported as 0.983. The IC50 [3] was > 30 µM, the AUC [5] was 0.88 and the IC50 [5] was > 10 µM.

SK-LU-1 (lung adenocarcinoma, adherent) showed an AUC [1] of 0.833, an IC50 [1] of 9.11 µM and an AUC [2] of 0.956. For the same cell line, the IC50 [2] was > 20 µM, the AUC [3] was 0.938 and the IC50 [3] was > 30 µM. For the same cell line, the AUC [6] was 0.718, the IC50 [6] was 9.94 µM and the AUC [4] was 0.734. It also gave an IC50 [4] of 1810 nM.

COLO-680N (oesophagus, adherent) was tested, and the AUC [2] was 0.984, the IC50 [2] was > 20 µM and the AUC [3] was 0.985. The IC50 [3] was > 30 µM, the AUC [6] was 0.882 and the IC50 [6] was > 32 µM. The AUC [4] was 0.982, the IC50 [4] was > 5120 nM and the AUC [5] was 0.876. For the same cell line, the IC50 [5] was > 10 µM.

In the case of CAL-120 (breast, adherent), the AUC [2] is reported as 0.939, the IC50 [2] is reported as > 20 µM and the AUC [3] is reported as 0.96. For the same cell line, the IC50 [3] was > 30 µM, the AUC [6] was 0.977 and the IC50 [6] was > 32 µM. It also gave an AUC [4] of 0.689, an IC50 [4] of 1280 nM and an AUC [5] of 0.904. For the same cell line, the IC50 [5] was > 10 µM.

“NCI-H2029 (small cell lung carcinoma, adherent)” was tested, and the AUC [2] was 0.99, the IC50 [2] was > 20 µM and the AUC [3] was 0.992. For the same cell line, the IC50 [3] was > 30 µM, the AUC [6] was 0.992 and the IC50 [6] was > 32 µM. It also gave an AUC [4] of 0.807, an IC50 [4] of 2320 nM and an AUC [5] of 0.982. For the same cell line, the IC50 [5] was > 10 µM.

In the case of “NCI-H2172 (non-small cell lung carcinoma, adherent)”, the AUC [2] is reported as 0.977, the IC50 [2] is reported as > 20 µM and the AUC [3] is reported as 0.981. The IC50 [3] was > 30 µM, the AUC [6] was 0.87 and the IC50 [6] was > 32 µM. For the same cell line, the AUC [4] was 0.783, the IC50 [4] was 3000 nM and the AUC [5] was 0.975. The IC50 [5] was > 10 µM.

Lines with a small IC50 respond at low doses; where the fit passes the top or lowest dose, that dose stands as a limit. For AUC the same curve is integrated over the 256-fold range of doses and scaled to a fraction; it is 1 without any effect and falls as sensitivity rises. For some assays here: A top dose marked as inferred is not printed in the source and was worked back from the curve model.
